Measurements published in ChEMBL document CHEMBL4888484, “Replenishing the malaria drug discovery pipeline: Screening and hit evaluation of the MMV Hit Generation Library 1 (HGL1) against asexual blood stage Plasmodium falciparum ,using a nano luciferase reporter read-out” (2022).
Hit rate of the full screen: of about 150,000 compounds, about 540 (0.36%) showed an effect of 50% or more. The list shows a part of the results.

test system: Plasmodium falciparum; test: Primary screen in NF54 nanoGlo assay, in single point, at 2uM, 72h; a lower Z score goes with more inhibition; type: functional, Erythrocyte; conditions: timepoint 72 hour

Compound	% Inhibition	Z score
Cc1cc(C)n(-c2ccc(=O)n([C@@H](C)C(=O)NCCc3ccc(S(N)(=O)=O)cc3)n2)n1	-12%	2.28
COc1ccc([C@@H](NC(=O)NCCC2(O)CCC2)C(F)(F)F)cc1	-1%	0.22
CC(C)NC(=O)N[C@@H]1CC[C@H]2CCOc3ccccc3C(=O)N3CCN(C4COC4)C[C@H]3C(=O)NC[C@H]1O2	4%	-0.63
Cc1csc(S(=O)(=O)N2CCOC[C@@H](CN(C)C)C2)c1	-12%	1.59
CCc1ncc(NS(=O)(=O)Cc2ccc(F)c(Cl)c2)cn1	0%	0.05
COCCN(CCNc1ncncc1Br)C1CC1	-3%	0.4
C[C@@H](Cn1cccn1)OC(=O)c1cccnc1	0%	0.07
C=CCNCc1cc(Br)cc(OC)c1OCC	-2%	0.23
C[C@H]1CN(Cc2cnc(NCc3ccccc3)nc2)CCN1C	-16%	1.57
CC(NC(=O)C1CC(=O)N(C(C)C)C1)c1nnc2n1CCCCC2 (configuration not stated)	-6%	0.62
CN(C)Cc1ccccc1Cn1cnc(-c2ccccc2)c1-c1c[nH]cn1	4%	-0.53
COc1ccc(S(=O)(=O)N2CC[C@H](Oc3ncc(F)cn3)C2)cc1OC	-8%	1.22
CN(C)[C@@H](CNC1CC2(C1)CN(C(=O)OC(C)(C)C)C2)c1c(F)cccc1F	4%	-0.45
COc1ccccc1OC(=O)c1cc(-c2ccccc2)on1	-7%	0.87
CC(=O)N1CC[C@@H]2N(C(=O)C(=O)c3cccn3C)CCC[C@@]2(CO)C1	-3%	0.59
Cc1ccc(C(=O)N(CC2CCN(CCc3ccccc3C)CC2)C2CCCC2)cn1	-17%	1.54
Cc1ccc(C2=C[C@@H](c3ccccc3)n3nnnc3N2CC(=O)N2CCOCC2)cc1	-14%	1.45
O=C(CCn1nc(C(=O)N2CCc3ccccc32)ccc1=O)N1CCN(C(=O)c2ccco2)CC1	1%	-0.1
Cc1cnccc1CN(C)C(=O)COc1cccnc1	-9%	1.26
COC[C@H]1CCCN(S(=O)(=O)c2cnc3c(cnn3C)c2)CC1	-8%	1.07
CCc1c(-c2cccc(C(=O)NCC3(Cn4ccnc4C)CC3)c2)cnn1C	-6%	1.2

Compound	% Inhibition	Z score
C[C@]1(C(=O)NCc2ccccc2)CCCN(S(=O)(=O)c2cccc3nsnc23)C1	21%	-3.3
CC(C)(C)c1ccc(C(=O)C(=O)Nc2ccn(CCc3ccncc3)n2)cc1	-9%	0.78
CCCc1nnsc1C(=O)NCCn1ccc2ccn(C)c2c1=O	-6%	1.12
[2H]C([2H])C12CC(NC(=O)N1CC)c1ccccc1O2 (configuration not stated)	-6%	0.71
COc1ccc(OC)c(S(=O)(=O)N2CCC3(CC2)CC3(F)F)c1	22%	-2.76
Cc1ccncc1C(=O)N1CCN(C(=O)C(C)C)[C@@H]2CS(=O)(=O)C[C@@H]21	-3%	0.53
O=S(=O)(C1CC1)N1CCCN(Cc2ccc(-c3ccn[nH]3)o2)CC1	-13%	1.32
CC1(C)c2[nH]c3ccccc3c2C[C@H]2C(=O)N(c3ccccc3C(=O)O)C(=O)N21	5%	-0.64
CCOCCCNC(=O)[C@H]1CCCN(c2nc3cccnc3s2)C1	4%	-0.34
CCOC(=O)N1CCC(NC(=O)c2ccnc(OCC3CC3)c2)CC1	-11%	2.02
CCCCOc1ccc(C(=O)c2c(C)c(C#N)c(=O)n(C[C@H]3CCCO3)c2O)cc1	-12%	1.67
CCOC(=O)c1ccc2[nH]cnc2c1NC(C)=O	32%	-4.06
COc1cccc(C(=O)NCC2=CCCN(CC(N)=O)C2)c1	-22%	2.79
CC(=O)N[C@H]1C[C@H]2CN(C(=O)c3ncoc3-c3cccc(C)c3)CC(=O)N2C1	-11%	1.49
O=C(Nc1ccn(CCc2ccncc2)n1)[C@H]1CCCC12OCCO2	1%	-0.2
O=C(NC1CCCCCCC1)[C@@H](c1ccccc1)n1cnnn1	-13%	1.56
CCc1ccc(CN2CCc3c(C(=O)N(C)[C@@H](C)C(=O)NC)csc3C2)nc1	5%	-0.69
Cn1nc(C(=O)NC2CCCCC2)cc1C(=O)NC1CCCCC1	32%	-1.32
CC(=O)Nc1ccccc1CC(=O)N1CCOC[C@@]1(C)C1CC1	-18%	3.25
Fc1ccc2c(c1)CC[C@@H]2NCc1ccc2c(c1)CCO2	-6%	0.73
